{"source": "PubChem BioAssay", "key": {"[1]": {"biological_target": "Solute carrier family 12 member 5 (Homo sapiens) (UniProt Q9H2X9)", "sequence (Q9H2X9 whole entry, looked up)": "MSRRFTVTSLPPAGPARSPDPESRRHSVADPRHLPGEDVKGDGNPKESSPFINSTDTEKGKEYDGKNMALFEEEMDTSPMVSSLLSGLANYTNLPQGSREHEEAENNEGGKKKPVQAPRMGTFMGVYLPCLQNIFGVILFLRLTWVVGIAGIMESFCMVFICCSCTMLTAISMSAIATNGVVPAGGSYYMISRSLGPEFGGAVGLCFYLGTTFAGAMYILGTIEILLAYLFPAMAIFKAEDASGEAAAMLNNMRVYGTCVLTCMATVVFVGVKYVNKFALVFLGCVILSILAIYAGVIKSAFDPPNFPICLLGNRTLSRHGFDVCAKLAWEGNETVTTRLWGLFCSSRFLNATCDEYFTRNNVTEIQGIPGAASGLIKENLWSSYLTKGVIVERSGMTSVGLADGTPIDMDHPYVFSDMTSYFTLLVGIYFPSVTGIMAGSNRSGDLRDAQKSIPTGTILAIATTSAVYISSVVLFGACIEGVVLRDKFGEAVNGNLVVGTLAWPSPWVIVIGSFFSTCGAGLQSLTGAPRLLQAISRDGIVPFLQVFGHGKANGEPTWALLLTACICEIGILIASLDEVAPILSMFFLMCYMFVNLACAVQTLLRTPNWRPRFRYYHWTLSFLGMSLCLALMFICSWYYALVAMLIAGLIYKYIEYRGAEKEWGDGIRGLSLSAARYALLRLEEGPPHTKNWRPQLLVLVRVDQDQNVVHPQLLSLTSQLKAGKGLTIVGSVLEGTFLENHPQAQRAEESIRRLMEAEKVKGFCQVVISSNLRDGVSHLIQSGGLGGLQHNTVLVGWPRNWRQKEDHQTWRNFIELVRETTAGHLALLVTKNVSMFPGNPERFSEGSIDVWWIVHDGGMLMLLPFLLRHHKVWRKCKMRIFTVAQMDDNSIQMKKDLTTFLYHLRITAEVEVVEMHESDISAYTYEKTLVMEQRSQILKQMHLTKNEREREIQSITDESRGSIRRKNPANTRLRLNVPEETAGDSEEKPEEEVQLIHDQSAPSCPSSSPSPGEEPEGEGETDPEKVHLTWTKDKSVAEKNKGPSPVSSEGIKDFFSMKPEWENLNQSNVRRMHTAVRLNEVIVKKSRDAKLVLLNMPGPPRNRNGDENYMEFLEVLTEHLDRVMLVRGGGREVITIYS", "experiment": "retest of KCC2 transport modulation, ouabain-free – cell-based, HEK293 KCC2, thallium flux, FluoZin2, secondary assay 2, confirmation (AID 1715;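 active = thallium flux slope more than 3 SD above or below the plate's solvent-only control mean, mostly below; inconclusive = the two repeat wells disagreed; inactive = no significant shift from solvent-only controls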;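 note: raw slope with 0.1% DMSO as baseline and bumetanide as block control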)", "settings": "HEK293-KCC2, thallium flux FluoZin2 fluorescence; at 10 µM; actives lie on both sides; F/F0 rise rate, 10–20 s post-thallium"}, "[2]": {"experiment": "native HEK Tl+ uptake effects, second counter-screen – HEK cells, counterscreen 2, counter-screen for KCC2 modulator project, confirmation (AID 1718;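 active = thallium flux slope above the same plate's solvent-control mean plus 3 SD in both duplicate wells; inconclusive = duplicate wells that disagreed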;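 note: run without ouabain in cells lacking the KCC2 cotransporter; slope of fluorescence scaled to its starting value between 10 and 20 s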)", "settings": "HEK293 parental, thallium flux FluoZin-2 fluorescence slope; at 10 µM", "how_it_was_run": "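Material: parental HEK cells. Medium: HBSS, 20 mM HEPES. Reagent: thallium sulfate stimulus, 12 mM in buffer, pH 7.3. Incubation: overnight cell culture at 37 °C, 48 min dye loading, compound before thallium. Signal: FluoZin-2 fluorescence kinetics. Read-out basis: thallium influx rate. Repeats: Per-replicate slope values.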"}, "[3]": {"experiment": "compound effects on native HEK Tl+ uptake – HEK cells, counterscreen 1, counter-screen for KCC2 modulator project, confirmation (AID 1716)", "settings": "HEK293 parental cells, thallium flux FluoZin2, ouabain; at 10 µM; baseline-ratio fluorescence slope, 10–20 s after thallium"}, "[4]": {"biological_target": "Solute carrier family 12 member 5 (Homo sapiens) (UniProt Q9H2X9)", "experiment": "modulation of KCC2 thallium flux in HEK cells – cell-based, ouabain, retest, confirmation (AID 1717;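 active = thallium flux slope beyond 3 SD from same-plate DMSO control mean in most replicates, usually higher, sometimes lower; inconclusive = repeat tests gave conflicting results; inactive = no significant difference from controls in most replicates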;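 note: slope of initial-normalized fluorescence between seconds 10 and 20 after thallium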)", "settings": "HEK293-KCC2, thallium flux FluoZin2 fluorescence, at 10 µM, bidirectional: low = inhibitor, high = activator"}}, "note": "The inconclusive results got no clear call from the source; some entries with a clear call stand among them for comparison. Active and inactive are the calls of the source.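 Rule for the calls, unless noted: active = thallium flux rate significantly above the same plate's solvent-only control wells, beyond their mean plus 3 SD; inconclusive = the two replicate wells gave conflicting results; inactive = the rest.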"}
{"smiles": "COc1ccccc1-c1nnc2sc(COc3ccc(F)cc3)nn12", "values": [{"measurement": "normalized thallium flux", "setting": "[1]", "value": "inconclusive: 0.0267"}, {"measurement": "thallium flux slope", "setting": "[2]", "value": "inconclusive: 0.00943"}]}
{"smiles": "CN1C/C(=C\\c2ccc(N3CCOCC3)cc2)C(=O)/C(=C/c2ccc(N3CCOCC3)cc2)C1", "values": [{"measurement": "normalized thallium flux", "setting": "[1]", "value": "active: 0.0169"}, {"measurement": "thallium flux slope", "setting": "[2]", "value": "inconclusive: 0.00803"}]}
{"smiles": "Cc1nc(SC2CC(=O)N(c3ccccc3)C2=O)nc2c1CCCC2", "note": "(centres undefined)", "values": [{"measurement": "thallium flux rate (normalised fluorescence)", "setting": "[3]", "value": "inconclusive: 0.00674"}]}
{"smiles": "O=C(NC(=S)Nc1ccc(N2CCOCC2)cc1)c1cncc(Br)c1", "values": [{"measurement": "thallium flux rate (normalised fluorescence)", "setting": "[3]", "value": "inconclusive: 0.00995"}]}
{"smiles": "Cc1ccc(/C(O)=C/C(=O)C(=O)NC23CC4CC(CC(C4)C2)C3)cc1", "values": [{"measurement": "thallium flux rate (normalised fluorescence)", "setting": "[3]", "value": "inconclusive: 0.0386"}]}
{"smiles": "COc1ccc(NC(=O)N2CCC(Cc3ccccc3)CC2)cc1", "values": [{"measurement": "thallium flux rate (normalised fluorescence)", "setting": "[3]", "value": "inactive: 0.00728"}]}
{"smiles": "O=C(Nc1ccc(Cl)cn1)C1CCCN1S(=O)(=O)c1ccc(Cl)cc1", "note": "(centres undefined)", "values": [{"measurement": "thallium flux rate (normalised fluorescence)", "setting": "[3]", "value": "inconclusive: 0.00839"}]}
{"smiles": "Cc1ccc(-n2nnnc2SCC(=O)NC2CCCc3ccccc32)cc1", "note": "(centres undefined)", "values": [{"measurement": "thallium flux rate (normalised fluorescence)", "setting": "[3]", "value": "inconclusive: 0.00629"}]}
{"smiles": "COc1cccc(CNc2cc(CSc3ccc(Cl)cc3)nc(C)n2)c1", "values": [{"measurement": "thallium flux rate (normalised fluorescence)", "setting": "[3]", "value": "inconclusive: 0.00662"}]}
{"smiles": "C/C(=N\\NC(=S)NCc1ccccc1)c1ccco1", "values": [{"measurement": "thallium flux rate (normalised fluorescence)", "setting": "[3]", "value": "inconclusive: 0.0135"}]}
{"smiles": "NC(=S)N=Nc1c(O)n(CCCl)c2ccc(Cl)cc12", "values": [{"measurement": "normalized thallium flux", "setting": "[1]", "value": "inconclusive: 0.0365"}, {"measurement": "thallium flux slope", "setting": "[2]", "value": "active: 0.0237"}]}
{"smiles": "Cc1[nH]n(C(N)=S)c(=O)c1N=Nc1ccc2ccccc2c1", "values": [{"measurement": "normalized thallium flux", "setting": "[1]", "value": "inconclusive: 0.0374"}, {"measurement": "thallium flux slope", "setting": "[2]", "value": "active: 0.0191"}]}
{"smiles": "O=C(Nc1nc(COc2ccccc2)cs1)C1CCC1", "values": [{"measurement": "normalized thallium flux", "setting": "[1]", "value": "inconclusive: 0.0263"}, {"measurement": "thallium flux slope", "setting": "[2]", "value": "inconclusive: 0.00993"}]}
{"smiles": "O=C(NC(=S)Nc1cc(C(F)(F)F)ccc1N1CCOCC1)c1ccco1", "values": [{"measurement": "thallium flux rate (normalised fluorescence)", "setting": "[3]", "value": "inconclusive: 0.0675"}]}
{"smiles": "Cc1cc(C)c(C#N)c(N2CCN(Cc3ccccc3)CC2)n1", "values": [{"measurement": "normalized thallium flux", "setting": "[1]", "value": "inconclusive: 0.0262"}, {"measurement": "thallium flux slope", "setting": "[2]", "value": "inactive: 0.00982"}]}
{"smiles": "Cc1ccc(C)c(NC(=S)NNC(=S)Nc2ccc(C(C)C)cc2)c1", "values": [{"measurement": "thallium flux rate (normalised fluorescence)", "setting": "[3]", "value": "active: 0.0112"}]}
{"smiles": "CCOC(=O)c1nc(C)nc(Sc2n[nH]c(-c3cc(C(F)(F)F)cc(C(F)(F)F)c3)n2)c1C", "values": [{"measurement": "thallium flux rate (normalised fluorescence)", "setting": "[3]", "value": "inconclusive: 0.00335"}]}
{"smiles": "Cc1ccc(OCc2n[nH]c(=S)n2-c2ccc(C)cc2)cc1", "values": [{"measurement": "thallium flux rate (normalised fluorescence)", "setting": "[3]", "value": "active: 0.0134"}]}
{"smiles": "CCn1c(CNC(=O)COc2ccc(C(C)C)cc2)nnc1SCC(=O)Nc1cc(F)ccc1C", "values": [{"measurement": "thallium flux rate (normalised fluorescence)", "setting": "[3]", "value": "inconclusive: 0.00335"}]}
{"smiles": "O=C(NNC(=O)c1sccc1-n1cccc1)c1ccc(F)cc1", "values": [{"measurement": "thallium flux rate (normalised fluorescence)", "setting": "[3]", "value": "inconclusive: 0.007"}]}
{"smiles": "O=C(NCC1CCCO1)C(c1cccs1)N(C(=O)c1ccc(-c2ccccc2)[nH]1)C1CCCC1", "note": "(centres undefined)", "values": [{"measurement": "normalized thallium flux", "setting": "[1]", "value": "inconclusive: 0.029"}, {"measurement": "thallium flux slope", "setting": "[2]", "value": "inactive: 0.0105"}]}
{"smiles": "O=C(NC(=S)Nc1ccccn1)c1ccccc1", "values": [{"measurement": "thallium flux rate (normalised fluorescence)", "setting": "[3]", "value": "inconclusive: 0.01"}]}
{"smiles": "O=C1NCC(COCc2ccco2)O1", "note": "(centres undefined)", "values": [{"measurement": "thallium flux rate (normalised fluorescence)", "setting": "[3]", "value": "inconclusive: 0.00801"}]}
{"smiles": "CCCc1c(-c2ccc(O)cc2)nn(-c2ccc(O)cc2)c1-c1ccc(O)cc1", "values": [{"measurement": "thallium flux rate (normalised fluorescence)", "setting": "[3]", "value": "inconclusive: 0.00671"}]}
{"smiles": "CC(C)NCC(O)c1cc(O)cc(O)c1", "note": "(centres undefined)", "values": [{"measurement": "thallium flux rate (normalised fluorescence)", "setting": "[3]", "value": "inconclusive: 0.00877"}]}
{"smiles": "CC(=O)NNC(=O)c1csc(Cc2c(Cl)sc3ccc(Cl)cc23)n1", "values": [{"measurement": "normalized thallium flux", "setting": "[1]", "value": "inactive: 0.0308"}, {"measurement": "thallium flux slope", "setting": "[2]", "value": "active: 0.0112"}]}
{"smiles": "O=C(COC(=O)CCCSc1nc2ccccc2[nH]1)NC(=O)NC1CCCC1", "values": [{"measurement": "thallium flux rate (normalised fluorescence)", "setting": "[3]", "value": "inconclusive: 0.00651"}]}
{"smiles": "CN(C)c1ccc(-c2nnn(Cc3ccccc3Br)n2)cc1", "values": [{"measurement": "thallium flux rate (normalised fluorescence)", "setting": "[3]", "value": "inconclusive: 0.00861"}]}
{"smiles": "CC(=O)OCC1OC(c2ccccc2)C(OC(C)=O)C(OC(C)=O)C1OC(C)=O", "note": "(centres undefined)", "values": [{"measurement": "normalized thallium flux", "setting": "[1]", "value": "inconclusive: 0.0261"}, {"measurement": "thallium flux slope", "setting": "[2]", "value": "inactive: 0.0105"}]}
{"smiles": "CCNC(=S)N/N=C(\\C)c1ccc2ccccc2c1", "values": [{"measurement": "thallium flux rate (normalised fluorescence)", "setting": "[3]", "value": "inconclusive: 0.0209"}]}
{"smiles": "CN(NS(=O)(=O)c1ccc(Cl)cc1)c1nc(C(F)(F)F)nc2ccccc12", "values": [{"measurement": "thallium flux rate (normalised fluorescence)", "setting": "[3]", "value": "inconclusive: 0.00596"}]}
{"smiles": "Cc1ccc(CCNC(=O)Cn2cccc2)cc1", "values": [{"measurement": "thallium flux rate (normalised fluorescence)", "setting": "[3]", "value": "inactive: 0.00784"}]}
{"smiles": "CCN=c1scc(-c2ccc(F)cc2)n1/N=C/c1ccccn1", "values": [{"measurement": "thallium flux rate (normalised fluorescence)", "setting": "[3]", "value": "inconclusive: 0.0085"}]}
{"smiles": "S=c1[nH]nc(-c2ccccc2)n1/N=C/c1ccc(-c2ccccc2Cl)o1", "values": [{"measurement": "normalized thallium flux", "setting": "[1]", "value": "inconclusive: 0.0378"}, {"measurement": "thallium flux slope", "setting": "[2]", "value": "active: 0.0182"}]}
{"smiles": "CS(=O)(=O)C1=NSC2=NC(=O)/C(=C\\c3cccn3-c3ccccc3Cl)C(=N)N21", "values": [{"measurement": "normalized thallium flux", "setting": "[1]", "value": "active: 0.0228"}, {"measurement": "thallium flux slope", "setting": "[2]", "value": "inconclusive: 0.00834"}]}
{"smiles": "O=C(Cn1c(-c2ccc(Cl)cc2)noc1=O)N1CCN(c2ccccc2F)CC1", "values": [{"measurement": "thallium flux rate (normalised fluorescence)", "setting": "[3]", "value": "inactive: 0.00698"}]}
{"smiles": "COc1ccccc1-c1ccc(=O)n(CC(=O)NCc2ccc3c(c2)OCO3)n1", "values": [{"measurement": "thallium flux rate (normalised fluorescence)", "setting": "[3]", "value": "inconclusive: 0.00827"}, {"measurement": "raw Tl+ flux slope (below DMSO = inhibition, above = activation)", "setting": "[4]", "value": "active: 0.0156"}]}
